# This is one part of the list.
# System: T1, Caupolican (Caup) homeodomain DNA-binding domain
# T1 sequence: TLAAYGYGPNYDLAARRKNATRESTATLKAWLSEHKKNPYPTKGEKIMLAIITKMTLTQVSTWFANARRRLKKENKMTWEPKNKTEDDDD
# Assay: PBM E-score (8-mer, recovered from the published 9-mer minima) (E-score (dimensionless, -0.5 to 0.5)); Drosophila protein; higher = stronger relative binding preference, active = 0.31 or more
# Procedure, shortened: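 An enrichment score, with higher meaning stronger, expresses relative binding preference for each short DNA word. The protein used was Caup's homeodomain DNA-binding domain (residues 214-303), produced by in vitro transcription and translation and tested at 100 nM on custom-designed protein binding microarrays. The 8-mer values were recovered from published 9-mer scores, each equal to the lower of its two constituent 8-mer scores.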
row,Sequence,PBM E-score
1,ACACATGA,inactive: 0.265
2,ATTGATTC,inactive: 0.0795
3,ATAGCGTG,inactive: 0.052
4,CACCTTAC,inactive: -0.0122
5,TAGAAGGA,inactive: -0.0985
6,AGGCTCTG,inactive: -0.121
7,AACAGAAC,inactive: 0.13
8,TATCCAGA,inactive: 0.0313
9,CCGGGCCG,inactive: -0.274
10,GTTCCACA,inactive: 0.0461
11,CGGTCGCA,inactive: -0.202
12,GGGCACCA,inactive: -0.152
13,CTCTCTAC,inactive: -0.0205
14,CCGACACG,inactive: 0.223
15,ATGGGTGA,inactive: -0.0214
16,CACGCCGA,inactive: -0.0882
17,CAAATGGG,inactive: -0.0307
18,CGCAGGCA,inactive: -0.142
19,CCAACCAG,inactive: -0.0712
20,ATACGTAA,inactive: 0.187
21,ATGGTCTC,inactive: -0.0017
22,ATCGAGCA,inactive: -0.0611
23,ACTGGTTC,inactive: 0.104
24,CCGCTGCG,inactive: -0.233
25,ACTATTAT,inactive: 0.0917

row,Sequence,PBM E-score
1,GGAGCCAC,inactive: -0.198
2,AATGTTGT,active: 0.368
3,CTCGCGAG,inactive: -0.129
4,GTCACGTA,inactive: 0.072
5,AATAGATA,inactive: 0.153
6,AGGCACTC,inactive: -0.148
7,GCTTTTCA,inactive: -0.0909
8,CGGCTACA,inactive: 0.0254
9,CTCTCCCC,inactive: -0.236
10,CGTCACGA,inactive: 0.0278
11,AGTAAGTA,inactive: 0.138
12,ACCCTGTC,inactive: -0.0132
13,AATCCGGG,inactive: -0.188
14,CCGGCGAA,inactive: -0.142
15,CGGTCCCA,inactive: -0.214
16,AATGCAAA,inactive: 0.144
17,GATTAACC,inactive: -0.0627
18,CCGCGTCC,inactive: -0.087
19,AGAACGCC,inactive: -0.114
20,AATGTAAT,inactive: 0.303
21,GGCATGAA,inactive: 0.0161
22,CCCCCGTC,inactive: -0.334
23,AATTCTCG,inactive: 0.118
24,ACACCCTG,inactive: 0.105
25,ACAAACTA,inactive: 0.228

row,Sequence,PBM E-score
1,ATTCTTAG,inactive: -0.0516
2,GGCATCTA,inactive: -0.0451
3,GGACGTCA,inactive: -0.0322
4,ACAGTATA,inactive: 0.206
5,CTGTAAAA,inactive: 0.121
6,GCTACTCC,inactive: -0.0924
7,GAAGCTAA,inactive: -0.097
8,AGCTCGAT,inactive: 0.00644
9,GATCTGGA,inactive: -0.0547
10,CGCGCGTA,inactive: -0.121
11,GTCTACCA,inactive: -0.00787
12,TGTCTCAA,inactive: 0.147
13,AACAAATC,inactive: 0.219
14,AGGTTATG,inactive: 0.044
15,GCTATCAA,inactive: -0.02
16,TCTGGCAA,inactive: -0.0834
17,AAAAAATA,inactive: 0.103
18,TATACCAA,inactive: 0.078
19,AGTTCTCA,inactive: 0.0922
20,GTATTGAA,inactive: 0.169
21,CGGCGAAG,inactive: -0.224
22,CCGGAATC,inactive: -0.157
23,CGGGGCAC,inactive: -0.176
24,TGAATGCA,inactive: 0.082
25,CGTTCCCC,inactive: -0.199

row,Sequence,PBM E-score
1,CTACGGCC,inactive: -0.265
2,ACGTATGA,inactive: 0.128
3,GGTAACGA,inactive: 0.0983
4,GGAATCCA,inactive: -0.123
5,ACGATTTA,≥ 0.118
6,AATCCTAA,inactive: -0.0293
7,ACTCAACT,inactive: 0.0816
8,TCCACAAA,inactive: -0.0857
9,AATATCAT,inactive: 0.165
10,AACGTCTG,inactive: 0.00133
11,GAAAGCTA,inactive: -0.0387
12,AGGGGTAG,inactive: -0.168
13,AGACAGTA,inactive: 0.142
14,GATTTTCA,inactive: 0.0992
15,AAGCAGAA,inactive: 0.0117
16,CCTAGTGC,inactive: -0.0537
17,AATTGGGC,inactive: -0.0131
18,CCGCAGGC,inactive: -0.175
19,CATTCGAC,inactive: 0.0787
20,ACCCTACA,inactive: 0.135
21,ACGAGACT,inactive: -0.00093
22,AAGGAGAT,inactive: 0.0194
23,CTAGCAAA,inactive: 0.0422
24,AAGCCACT,inactive: -0.0777
25,ACCCCTCC,inactive: -0.121

row,Sequence,PBM E-score
1,ATTAGGGG,inactive: -0.0877
2,GCCGGGGA,inactive: -0.241
3,GGAGCCAA,inactive: -0.247
4,AACGCGGA,inactive: -0.101
5,GCTACTAA,inactive: 0.0694
6,ATAGCATA,inactive: 0.139
7,CGCCCCCA,inactive: -0.285
8,ACCCGAAC,inactive: -0.0964
9,GAAGAAGC,inactive: -0.158
10,TGCGACAA,inactive: 0.148
11,ATGGTACA,active: 0.32
12,AGGGGTTG,inactive: -0.00316
13,TCCTCCCA,inactive: -0.116
14,CAGTGAGC,inactive: -0.108
15,CCGCCAGG,inactive: -0.211
16,ACTGTAGC,inactive: -0.0122
17,AAAAAAAA,inactive: 0.0105
18,CTCTAGCA,inactive: -0.017
19,CGGCCGTA,inactive: -0.11
20,AATCTTGG,inactive: 0.0351
21,AGGAAGGG,inactive: -0.201
22,AGGTACAC,inactive: 0.297
23,TAGACCCA,inactive: -0.0906
24,GATTATCC,inactive: 0.0409
25,CCACGGGA,inactive: -0.103

row,Sequence,PBM E-score
1,CACCCACA,inactive: -0.0592
2,CAGCGGGG,inactive: -0.286
3,AAAGACGT,inactive: -0.0542
4,CATGGTAG,inactive: 0.121
5,GATACAAA,inactive: 0.213
6,CATTGTAC,active: 0.323
7,CGTATCAC,inactive: 0.101
8,AAAACGGA,inactive: 0.00451
9,ATCCTAAG,inactive: -0.143
10,ACAGCAAC,inactive: 0.118
11,GTTTCCTA,inactive: 0.151
12,GATAGGAA,inactive: 0.0422
13,TGTGACAA,inactive: 0.298
14,GGATTACC,inactive: -0.025
15,ACTTCAGC,inactive: -0.128
16,AGGATCAG,inactive: -0.0645
17,GAGATACA,inactive: 0.231
18,CTGCAATA,inactive: 0.0648
19,TTCCAGAA,inactive: 0.052
20,CTTACCCA,inactive: -0.0604
21,AAGAAATT,inactive: 0.0273
22,GACCTACA,inactive: 0.0736
23,GACACGGA,inactive: 0.286
24,CCAATACG,inactive: 0.0979
25,AGAACGCT,inactive: -0.0866

row,Sequence,PBM E-score
1,AAGCGTGG,inactive: -0.168
2,TGCTCAAA,inactive: 0.0435
3,CAACGAGA,inactive: 0.107
4,CCGCGGTA,inactive: -0.12
5,GCTCTTAC,inactive: 0.0957
6,CACCACGC,inactive: -0.188
7,CATAAGCC,inactive: -0.032
8,CAACGAGG,inactive: 0.0398
9,CTGGCATA,inactive: -0.0145
10,TCTAGTCA,inactive: 0.0786
11,GTACATGA,active: 0.435
12,GAGGGTCA,inactive: -0.163
13,AAAAGAGT,inactive: -0.0158
14,AGAGAGGC,inactive: -0.207
15,CAGCCAGA,inactive: -0.146
16,GAAAGCTC,inactive: -0.111
17,CGTATGCA,inactive: 0.00595
18,CCCATACG,inactive: -0.0928
19,ACCGATTG,inactive: 0.149
20,TAGACAGA,inactive: 0.087
21,GTAACGAA,inactive: 0.106
22,AACATGCT,active: 0.376
23,AGATTCAA,inactive: 0.106
24,CAATATTG,≥ 0.264
25,CGGGGCCC,inactive: -0.257

row,Sequence,PBM E-score
1,AATTGTCA,inactive: 0.25
2,ACAGTTGG,inactive: 0.0397
3,AAGCATAG,inactive: 0.0253
4,AATGTTTG,inactive: 0.244
5,GCCTAGTA,inactive: -0.0206
6,CATTATAA,inactive: 0.00764
7,AGAGTTAC,inactive: 0.0703
8,GATGGAAC,inactive: 0.0718
9,GCAAATAC,inactive: 0.0617
10,CCCTCCTA,inactive: -0.135
11,AATGCTCT,inactive: 0.00353
12,ATATCGAG,inactive: 0.0301
13,ACGAAGCA,inactive: 0.0439
14,ATTATCGA,inactive: 0.0755
15,GGGGTCGA,inactive: -0.151
16,CATCATAC,inactive: 0.198
17,GACTGAGC,inactive: -0.135
18,ATCCAACC,inactive: -0.0224
19,GAAGAGGC,inactive: -0.167
20,AGCGTAGG,inactive: -0.182
21,GCGGTCCA,inactive: -0.206
22,GAGGTCAA,inactive: -0.0334
23,CCGGTTCA,inactive: -0.146
24,AAACCGGT,inactive: -0.109
25,CGTCCGGC,inactive: -0.219

row,Sequence,PBM E-score
1,ACACTTGC,inactive: 0.127
2,GTATAACA,active: 0.338
3,AGACGGCT,inactive: -0.134
4,GCCGGGTA,inactive: -0.161
5,AACATCCT,inactive: 0.261
6,GCTGGAGA,inactive: -0.19
7,GATGCCGA,inactive: -0.0496
8,GGCGTGAC,inactive: -0.091
9,GATGCAAA,inactive: 0.00966
10,CGAGCTAA,inactive: -0.095
11,GCTAATGA,inactive: 0.0156
12,AGGCCTAT,inactive: -0.0555
13,GCTGAGAC,inactive: -0.0615
14,GTTCACAA,inactive: 0.15
15,CCTTAGAA,inactive: -0.0668
16,AAAATGCC,inactive: -0.0299
17,AAATGGTA,inactive: 0.174
18,CTTGATCC,inactive: -0.0897
19,AACCCGTA,inactive: -0.0357
20,AAGGAGTC,inactive: -0.0913
21,CTGAGCGC,inactive: -0.211
22,GATAACTA,inactive: 0.192

# From the supplement of paper PMC3724861
